Test results published in the supplement of paper PMC9151546.
Repeats are few or missing, and single values can be far off.

Key:
CHO-K1 [1] = experiment: micronucleus frequency (% of nucleated events); higher = more micronuclei (genotoxic)
CHO-K1 [2] = experiment: relative survival (nuclei to bead ratio vs DMSO control) (% of vehicle control); higher = more surviving cells
Protocol: (§1)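 Flow-cytometric in vitro micronucleus assay (Litron MicroFlow) in CHO-K1 cells in 96-well plates, 19 concentrations (4.5-200 µM, n=1 per concentration). Without S9, cells were exposed for 24 h and sampled at 48 h. With Aroclor 1254-induced rat liver S9, cells were exposed for 3-4 h and sampled at 27-28 h. Read-outs are %MN and %hypodiploid nuclei relative to nucleated events, and relative survival as the nuclei-to-bead ratio versus the 1% DMSO vehicle control (x100).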

CHO-K1 [3] = experiment: hypodiploid nuclei frequency (% of nucleated events); higher = more hypodiploid events (aneugenic)
Protocol: as §1
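For hypodiploid nuclei frequency (% of nucleated events) in this document: hypodiploid nuclei gated on a flow cytometer with 488 nm excitation after SYTOX Green staining, cultures at 37 °C, positive controls vinblastine without S9 and cyclophosphamide with S9.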
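For micronucleus frequency (% of nucleated events) in this document: cells lysed with nuclei stained by SYTOX Green, then micronucleus-gated events counted against nucleated events by flow cytometry with 488 nm excitation.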
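For relative survival (nuclei to bead ratio vs DMSO control) in this document: Lysed-cell nuclei stained with SYTOX Green and counted against counting beads by flow cytometry at 488 nm excitation, with vinblastine (no S9) and cyclophosphamide (plus S9) as positive controls.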

Oc1ccccc1O [Catechol]
Settings | hypodiploid nuclei frequency, CHO-K1 [3] [%] | micronucleus frequency, CHO-K1 [1] [%] | relative survival, CHO-K1 [2]
concentration: 4.55 (µM), S9 metabolic activation: with S9, exposure time: 3-4 hours | 0.36 | 1.52 | 115
concentration: 4.55 (µM), S9 metabolic activation: without S9, exposure time: 24 hours | 0.28 | 2.22 | 143
concentration: 5.69 (µM), S9 metabolic activation: with S9, exposure time: 3-4 hours | 0.34 | 1.06 | 108
concentration: 5.69 (µM), S9 metabolic activation: without S9, exposure time: 24 hours | 0.54 | 1.16 | 122
concentration: 7.11 (µM), S9 metabolic activation: with S9, exposure time: 3-4 hours | 0.2 | 0.94 | 101
concentration: 7.11 (µM), S9 metabolic activation: without S9, exposure time: 24 hours | 0.5 | 1.78 | 133
concentration: 8.88 (µM), S9 metabolic activation: with S9, exposure time: 3-4 hours | 0.4 | 1.16 | 97.7
concentration: 8.88 (µM), S9 metabolic activation: without S9, exposure time: 24 hours | 0.76 | 1.5 | 145
concentration: 11.1 (µM), S9 metabolic activation: with S9, exposure time: 3-4 hours | 0.1 | 1.26 | 120
concentration: 11.1 (µM), S9 metabolic activation: without S9, exposure time: 24 hours | 0.44 | 1.46 | 108
concentration: 13.9 (µM), S9 metabolic activation: with S9, exposure time: 3-4 hours | 0.28 | 0.92 | 117
concentration: 13.9 (µM), S9 metabolic activation: without S9, exposure time: 24 hours | 0.42 | 2.3 | 146
concentration: 17.4 (µM), S9 metabolic activation: with S9, exposure time: 3-4 hours | 0.16 | 0.9 | 91
concentration: 17.4 (µM), S9 metabolic activation: without S9, exposure time: 24 hours | 0.9 | 2.48 | 95.6
concentration: 21.7 (µM), S9 metabolic activation: with S9, exposure time: 3-4 hours | 0.18 | 1.26 | 94.2
concentration: 21.7 (µM), S9 metabolic activation: without S9, exposure time: 24 hours | 0.7 | 2.24 | 70.1
concentration: 27.1 (µM), S9 metabolic activation: with S9, exposure time: 3-4 hours | 0.24 | 0.89 | 42.8
concentration: 27.1 (µM), S9 metabolic activation: without S9, exposure time: 24 hours | 2.12 | 2.5 | 67.2
concentration: 33.9 (µM), S9 metabolic activation: with S9, exposure time: 3-4 hours | 0.31 | 1.12 | 71.3
concentration: 33.9 (µM), S9 metabolic activation: without S9, exposure time: 24 hours | 1.42 | 3.32 | 79
concentration: 42.4 (µM), S9 metabolic activation: with S9, exposure time: 3-4 hours | 0.22 | 0.74 | 69.4
concentration: 42.4 (µM), S9 metabolic activation: without S9, exposure time: 24 hours | 2.09 | 4.1 | 57.6
concentration: 53 (µM), S9 metabolic activation: with S9, exposure time: 3-4 hours | 0.2 | 0.66 | 94
concentration: 53 (µM), S9 metabolic activation: without S9, exposure time: 24 hours | 0.79 | 3.22 | 69.7
concentration: 66.2 (µM), S9 metabolic activation: with S9, exposure time: 3-4 hours | 0.22 | 0.98 | 96.6
concentration: 66.2 (µM), S9 metabolic activation: without S9, exposure time: 24 hours | 0.45 | 2.16 | 54.1
concentration: 82.7 (µM), S9 metabolic activation: with S9, exposure time: 3-4 hours | 0.34 | 1.22 | 95.5
concentration: 82.7 (µM), S9 metabolic activation: without S9, exposure time: 24 hours | 0.53 | 2.08 | 61
concentration: 103 (µM), S9 metabolic activation: with S9, exposure time: 3-4 hours | 0.38 | 2.54 | 81.6
concentration: 103 (µM), S9 metabolic activation: without S9, exposure time: 24 hours | 0.5 | 1.83 | 44.5
concentration: 129 (µM), S9 metabolic activation: with S9, exposure time: 3-4 hours | 0.5 | 3.02 | 80.5
concentration: 129 (µM), S9 metabolic activation: without S9, exposure time: 24 hours | 0.26 | 1.51 | 57.2
concentration: 162 (µM), S9 metabolic activation: with S9, exposure time: 3-4 hours | 0.64 | 2.92 | 67.7
concentration: 162 (µM), S9 metabolic activation: without S9, exposure time: 24 hours | 0.38 | 1.46 | 65.8
concentration: 202 (µM), S9 metabolic activation: with S9, exposure time: 3-4 hours | 0.24 | 2.07 | 62.1
concentration: 202 (µM), S9 metabolic activation: without S9, exposure time: 24 hours | 0.23 | 1.65 | 48

CCOP(=S)(OCC)Oc1nc(Cl)c(Cl)cc1Cl [Chlorpyrifos]
Settings | hypodiploid nuclei frequency, CHO-K1 [3] [%] | micronucleus frequency, CHO-K1 [1] [%] | relative survival, CHO-K1 [2]
concentration: 4.5 (µM), S9 metabolic activation: with S9, exposure time: 3-4 hours | 0.26 | 1.62 | 86.4
concentration: 4.5 (µM), S9 metabolic activation: without S9, exposure time: 24 hours | 0.4 | 2.62 | 99.5
concentration: 5.63 (µM), S9 metabolic activation: with S9, exposure time: 3-4 hours | 0.1 | 1.22 | 101
concentration: 5.63 (µM), S9 metabolic activation: without S9, exposure time: 24 hours | 0.88 | 2.46 | 102
concentration: 7.04 (µM), S9 metabolic activation: with S9, exposure time: 3-4 hours | 0.14 | 1.34 | 82.3
concentration: 7.04 (µM), S9 metabolic activation: without S9, exposure time: 24 hours | 0.68 | 2.38 | 97
concentration: 8.8 (µM), S9 metabolic activation: with S9, exposure time: 3-4 hours | 0.26 | 1.36 | 92.3
concentration: 8.8 (µM), S9 metabolic activation: without S9, exposure time: 24 hours | 0.52 | 2.92 | 94.6
concentration: 11 (µM), S9 metabolic activation: with S9, exposure time: 3-4 hours | 0.18 | 1.58 | 92.3
concentration: 11 (µM), S9 metabolic activation: without S9, exposure time: 24 hours | 0.44 | 2.8 | 115
concentration: 13.7 (µM), S9 metabolic activation: with S9, exposure time: 3-4 hours | 0.2 | 1.56 | 82.3
concentration: 13.7 (µM), S9 metabolic activation: without S9, exposure time: 24 hours | 0.52 | 2.46 | 101
concentration: 17.2 (µM), S9 metabolic activation: with S9, exposure time: 3-4 hours | 0.16 | 1.82 | 94.2
concentration: 17.2 (µM), S9 metabolic activation: without S9, exposure time: 24 hours | 0.7 | 2.64 | 104
concentration: 21.5 (µM), S9 metabolic activation: with S9, exposure time: 3-4 hours | 0.22 | 1.34 | 112
concentration: 21.5 (µM), S9 metabolic activation: without S9, exposure time: 24 hours | 0.56 | 1.94 | 89.8
concentration: 26.8 (µM), S9 metabolic activation: with S9, exposure time: 3-4 hours | 0.22 | 2.14 | 93.5
concentration: 26.8 (µM), S9 metabolic activation: without S9, exposure time: 24 hours | 0.98 | 2.02 | 115
concentration: 33.6 (µM), S9 metabolic activation: with S9, exposure time: 3-4 hours | 0.36 | 1.9 | 101
concentration: 33.6 (µM), S9 metabolic activation: without S9, exposure time: 24 hours | 0.44 | 1.7 | 118
concentration: 41.9 (µM), S9 metabolic activation: with S9, exposure time: 3-4 hours | 0.24 | 1.68 | 82.8
concentration: 41.9 (µM), S9 metabolic activation: without S9, exposure time: 24 hours | 0.78 | 1.88 | 111
concentration: 52.4 (µM), S9 metabolic activation: with S9, exposure time: 3-4 hours | 0.24 | 2.12 | 89.1
concentration: 52.4 (µM), S9 metabolic activation: without S9, exposure time: 24 hours | 0.6 | 2.06 | 93.7
concentration: 65.5 (µM), S9 metabolic activation: with S9, exposure time: 3-4 hours | 0.44 | 2.68 | 65.9
concentration: 65.5 (µM), S9 metabolic activation: without S9, exposure time: 24 hours | 0.96 | 2.1 | 101
concentration: 81.9 (µM), S9 metabolic activation: with S9, exposure time: 3-4 hours | 0.34 | 2.5 | 57.8
concentration: 81.9 (µM), S9 metabolic activation: without S9, exposure time: 24 hours | 1.1 | 2.14 | 97.5
concentration: 102 (µM), S9 metabolic activation: with S9, exposure time: 3-4 hours | 0.36 | 2.08 | 61.3
concentration: 102 (µM), S9 metabolic activation: without S9, exposure time: 24 hours | 1.38 | 3.5 | 96
concentration: 128 (µM), S9 metabolic activation: with S9, exposure time: 3-4 hours | 0.38 | 2.76 | 65
concentration: 128 (µM), S9 metabolic activation: without S9, exposure time: 24 hours | 1.16 | 2.98 | 98
concentration: 160 (µM), S9 metabolic activation: with S9, exposure time: 3-4 hours | 0.32 | 1.96 | 70.9
concentration: 160 (µM), S9 metabolic activation: without S9, exposure time: 24 hours | 1.54 | 3 | 75.2
concentration: 200 (µM), S9 metabolic activation: with S9, exposure time: 3-4 hours | 0.22 | 1.66 | 56
concentration: 200 (µM), S9 metabolic activation: without S9, exposure time: 24 hours | 1.22 | 3.06 | 57.2
